# Source: PMC12136788
# This is one part of the list.
# B1: chr11:119418913:119419014:-|3pUTR|ENSG00000154096|msi1|FALSE|unique (ssRNA)
# RNA: GGGAGUUCUACAGUCCGACGAUCAUCGGGACCAGAAACCUGGGAGAGACUUGGAUGAGGAGUGGUUGGGCUGUGCCUGGGCCUAGCACGGACAUGGUCUGUCCUGACAGCACUCCUCGGCAGGCAUGGCUGGUGCCUGAAGACCAACAGAGGAUUGAGCAUCA
# B2: chr3:41225420:41225524:+|CDS|ENSG00000168036|unk|FALSE|unique (ssRNA)
# RNA: GGGAGUUCUACAGUCCGACGAUCCAUGCGUUCUCCUCAGAUGGUGUCUGCUAUUGUACGUACCAUGCAGAAUACAAAUGAUGUAGAAACAGCUCGUUGUACCGCUGGGACCUUGCAUAACCUUUCCCAUCAUCGUGAGGGCUUCAACAGAGGAUUGAGCAUCA
# B3: chrX:120253675:120253799:+|CDS|ENSG00000177485|unk|FALSE|bound_elsewhere (ssRNA)
# RNA: GGGAGUUCUACAGUCCGACGAUCUAAAAUUGUUCGUGUUAGAUCAGAUUUGCUUGAUGAGUUAAUUAAAUCAGGGCAGUUAUUAGGAGUGAAAUUUAUAGCAGAGCUUGGUGUCCCAUUGUCACAGGUUAAAAGCAUCUCAGGCAACAGAGGAUUGAGCAUCA
# B4: chr12:79451877:79451978:+|3pUTR|ENSG00000067715|msi1|total|mutant (ssRNA)
# RNA: GGGAGUUCUACAGUCCGACGAUCCCUUCAUUUUUGAUGAGGUGAUUUAAAUUUUGUUUCACUUUGUGCCGUGAAUUCCACAGCCGUUUUCUGAUUGUUGUUAAAAAUGACUUAACAUAUUACACAGAUAUUCAAUAAAAAUGUCAACAGAGGAUUGAGCAUCA
# B5: ENSG00000198589:be:win_9351|3pUTR|ENSG00000198589|bound_else_gene|NA|bound_elsewhere_windowed (ssRNA)
# RNA: GGGAGUUCUACAGUCCGACGAUCAGCCACUGUUGUUUUGUUGGGGCACCCCCUUCCCUCCCCGGGUUUGCAAAUAGAGGCUACCGGGUGCUGUAUUCAGCAACACCUGUUUUACUAUUUGUUAUUAAACUAUCAUCUCCACCUCAACAGAGGAUUGAGCAUCA
# B6: chr2:159349074:159349175:-|CDS|ENSG00000123636|unk|total|mutant (ssRNA)
# RNA: GGGAGUUCUACAGUCCGACGAUCUGGUGUGGUUACUUCUAAUAUUCCAUUUACAUCAUCUGUACCCCGUCCCGGAUCGGGGUCCGGGUUAUCAGAAGGAAAUGGUAAUUCAUUCUUGACUUCCAAUGUUGCUUCAAGUAAAAGCAACAGAGGAUUGAGCAUCA
# B7: ENSG00000136451:be:win_3001|3pUTR|ENSG00000136451|bound_else_gene|NA|bound_elsewhere_windowed (ssRNA)
# RNA: GGGAGUUCUACAGUCCGACGAUCUGGUUUUUUUCAUUUUUUAAUCAUUGCAGUUAAGAGAAAUGGAAAUUAGUUGUGUUAAUCUUGCAGAAUGUUUGCAGGACUGACUAUCAAACUGGAUGAUUUCCAUUUAUACCCUACUGUCAACAGAGGAUUGAGCAUCA
# B8: chr10:96238888:96239129:-|three_prime_utr|ENSG00000095585|control|control|control (ssRNA)
# RNA: GGGAGUUCUACAGUCCGACGAUCAGUGUGGCCCAACAGGAUCUUCUAAGCCUUUGCAACACAAAGUUUGAUUCCCAGCAAGAUAGCAUCAACCUCAUCUGGAGCUUGUUAGAAAUGCAGAAUCUUGGCCCCACCCUAGAACUACAACAGAGGAUUGAGCAUCA
# B9: chr1:153933785:153933886:-|CDS|ENSG00000198837|msi1|total|mutant (ssRNA)
# RNA: GGGAGUUCUACAGUCCGACGAUCGGGAAGUUGGUGCAGAGGCUGGGGUCCAUCUUCCCUCAUUCUUUUCUGUGCUGCAGUGACCGAGGCCUUGGGGGUCCUGGAACCCCGGGGAUCACCUGUGCCCUGGCACGAUGGAAGUCUCAACAGAGGAUUGAGCAUCA
# B10: chr11:69651622:69651678:+|3pUTR|ENSG00000110092|msi1_unk|total|mutant (ssRNA)
# RNA: GGGAGUUCUACAGUCCGACGAUCUUAUACCCCAAUAAUCAACUCGUUUUUAUAUUAAUGUACUUGUUUCUCUGUUGUAAGAACCGGCAUUAACACAAAGGAGGCGUCUCGGGAGAGGAUCCGGUUCCAUCCUUUACGUGUUUACAACAGAGGAUUGAGCAUCA
# B11: chrX:14865087:14865190:-|CDS|ENSG00000181544|unk|total|mutant (ssRNA)
# RNA: GGGAGUUCUACAGUCCGACGAUCAUAUUUUUUACUAAUCCUUCACAGUACUAAUAAAUUUGAAAUGCGUUUGAGUUUUAAACCCGGCUAUGAGAUGAAGGAUGGCCUAAGGGUCCUUAAUGGCCCUUUAAUUUUAUGGAGGCACAACAGAGGAUUGAGCAUCA
# B12: chr3:105576037:105576138:+|3pUTR|ENSG00000170017|msi1|total|mutant (ssRNA)
# RNA: GGGAGUUCUACAGUCCGACGAUCCUCCGUUUAAUAAAAGCUUCCGCCGUGCAUUGGUAUGGAUUAAAUGCAUAAAAUAUUCUCCGACUCGAUGCUGUAUAAAAUAUUAUGGGAAAAAAAGAAAAUACGUUAUUUUGCCUCUAACAACAGAGGAUUGAGCAUCA
# B13: chr12:39553410:39553513:-|3pUTR|ENSG00000173208|unk|FALSE|unique (ssRNA)
# RNA: GGGAGUUCUACAGUCCGACGAUCUAAGAUUCAAACUUUGAGUGACAUUUAGUCCAUUUAUGGUUGAUAUUAGGUUUAAUAGCUAGAAUUCAAAUUGAUUAUUGCUAGUGGCCAACUAAACCUGUACAAAAUAGCUGACAGUUUCAACAGAGGAUUGAGCAUCA
# B14: chr6:32841530:32841735:-|CDS|ENSG00000204264|control|control|control (ssRNA)
# RNA: GGGAGUUCUACAGUCCGACGAUCACGGGUAGUGGGAACACUUAUGCCUACGGGGUCAUGGACAGUGGCUAUCGGCCUAAUCUUAGCCCUGAAGAGGCCUAUGACCUUGGCCGCAGGGCUAUUGCUUAUGCCACUCACAGAGACCAACAGAGGAUUGAGCAUCA
# Molecular target: MSI1 full-length (mouse, UniProt Q61474 1-362)
# Assay: nsRBNS (natural sequence RNA bind-n-seq); RBNS binding buffer (assumed for nsRBNS): 25 mM Tris pH 7.5, 150 mM KCl, 3 mM MgCl2, 0.01% Triton X-100, 500 ug/ml BSA, 20 U/ml SUPERase-In, 4 C; UNK is unkempt and MSI1 is Musashi-1; names of the RNAs are library labels; protein concentration not given here; high values mean tight binding
# UniProt Q61474, sequence (Q61474 whole entry): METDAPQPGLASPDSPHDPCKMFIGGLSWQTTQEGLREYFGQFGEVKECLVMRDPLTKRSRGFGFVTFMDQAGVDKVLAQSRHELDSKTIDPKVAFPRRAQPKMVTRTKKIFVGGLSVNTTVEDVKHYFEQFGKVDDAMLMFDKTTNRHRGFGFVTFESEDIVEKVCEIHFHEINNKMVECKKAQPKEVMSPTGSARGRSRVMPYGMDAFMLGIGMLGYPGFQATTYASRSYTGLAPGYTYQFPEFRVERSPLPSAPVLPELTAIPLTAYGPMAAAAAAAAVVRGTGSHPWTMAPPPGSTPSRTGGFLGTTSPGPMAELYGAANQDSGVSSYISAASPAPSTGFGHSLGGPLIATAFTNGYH
row,Binder,binding signal
1,B1,0.537 enrichment R
2,B2,0.513 enrichment R
3,B3,12.6 enrichment R
4,B4,0.433 enrichment R
5,B5,0.837 enrichment R
6,B6,0.244 enrichment R
7,B7,0.33 enrichment R
8,B8,0.628 enrichment R
9,B9,0.518 enrichment R
10,B10,0.776 enrichment R
11,B11,0.443 enrichment R
12,B12,0.852 enrichment R
13,B13,5.44 enrichment R
14,B14,0.269 enrichment R
